Here are results for 109 sequences from PMC10668032.

Some of the results follow. At the low end of the ranking, values are background and their order means little.

This assay has as its target SIX1 homeodomain (reference allele) (UniProt Q15475). Description: universal protein binding microarray. The following applies: Universal all-10-mer PBM (8x60K, AMADID 030236), 300 nM GST-tagged protein, Alexa Fluor 488 anti-GST; buffer, salt, pH and temperature not stated; high values mean tight binding; most listed sequences are background and not binding sites; double strand, one strand shown.
For the sequence AAGCTACC, the binding signal was -0.0689 E-score.
On to CTCGGCAG, for which the binding signal amounted to 0.0723 E-score.
On to CATATCTA, for which the binding signal was 0.322 E-score.
GCTCGGCA: the binding signal was -0.00583 E-score.
In the case of ACCTGCTA, the binding signal turned out to be 0.228 E-score.
CCTGAGCA: the binding signal was -0.00048 E-score.
On to AGAGACTC, for which the binding signal was -0.153 E-score.
With ATTTGCAC the figure was -0.209 E-score; with AAGAGTTC, -0.0987 E-score; with CCCTATGC, -0.165 E-score.
As to AAATGGAT, the binding signal stood at 0.167 E-score.
For AGCAGGGC, the binding signal is -0.0389 E-score.
For ACTGGGGA, the binding signal came to 0.0274 E-score.
As for CATCGCAA, the binding signal is -0.123 E-score.
As for CCCAAGGC, the binding signal was -0.131 E-score.
Consider CAGTGGGC, for which the binding signal came to 0.0211 E-score.
With ACAGACCA the figure was -0.147 E-score; with AGTTAAAA, -0.275 E-score; with CCAACGCA, -0.0621 E-score.
For the sequence CGGAGTGA, the binding signal was -0.0521 E-score.
With GAAGTGGC the figure was -0.197 E-score.
With ACTACCGG, the binding signal is -0.145 E-score.
For GTTTCAAA, the binding signal was -0.0624 E-score.
On to ATCGCTTC, for which the binding signal turned out to be 0.226 E-score.
Regarding AAATAGCA, the binding signal stood at 0.0357 E-score.
Take ACGACTAG: the binding signal was -0.0585 E-score.
In the case of CCGCAAAA, the binding signal is -0.115 E-score.
For CTCGGAAA, the binding signal is -0.201 E-score.
AGGTCCCC: the binding signal is -0.428 E-score.
On to AACACCTA, for which the binding signal worked out at 0.126 E-score.
Regarding AGATGAGA, the binding signal is 0.224 E-score.
For TCTTACAA, the binding signal was -0.0476 E-score.
For the sequence ATGTACGG, the binding signal is -0.0489 E-score.
With ATCCGCAT the figure was 0.37 E-score; with ATCAAAAC, 0.126 E-score.
With TGACACAA the figure was 0.0628 E-score; with AATTACAA, -0.297 E-score; with GTACACAA, -0.0464 E-score.
Regarding AGAGTGAG, the binding signal turned out to be 0.172 E-score.
As for ACAGGAAG, the binding signal was -0.073 E-score.
With CCCTGTGA the figure was 0.0226 E-score; with GTTCCTTA, -0.0541 E-score; with GCCATCAA, -0.318 E-score.
For TGATTGCA, the binding signal was -0.101 E-score.
Turning to ATTACCAG, the binding signal was -0.0925 E-score.
On to CATAGCCG, for which the binding signal was determined as 0.0103 E-score.
As for CTCTGCGA, the binding signal was -0.148 E-score.
With GGCAGAGA, the binding signal was -0.138 E-score.
For AGGATTCG, the binding signal turned out to be 0.0478 E-score.
CGCGAATC: the binding signal was -0.0537 E-score.
GTAGGAAA: the binding signal was -0.178 E-score.
With CCAGGTCC the figure was -0.124 E-score.
Regarding CAAGGTCA, the binding signal is 0.0153 E-score.
Take AGCCGCTA: the binding signal is 0.00298 E-score.
In the case of GATTAATC, the binding signal was determined as 0.236 E-score.
Take GTGTTTAA: the binding signal was -0.111 E-score.
Turning to AGGTTGAC, the binding signal is -0.1 E-score.
With CGGTGAGA the figure was 0.253 E-score.
As to GACTTCCA, the binding signal was -0.307 E-score.
CGTATTAG: the binding signal turned out to be 0.174 E-score.
For CATGTACA, the binding signal is -0.217 E-score.
Consider CGAGAAGA, for which the binding signal is -0.0698 E-score.
Take GATCTTTA: the binding signal is 0.164 E-score.
Consider GCCCTTCA, for which the binding signal was -0.102 E-score.
With TCGATAAA, the binding signal is -0.142 E-score.
Take GGACTCGA: the binding signal is -0.039 E-score.
For ACTTGTAG, the binding signal is -0.188 E-score.
Regarding ACTCAGCG, the binding signal is -0.0473 E-score.
As to CGTCAACA, the binding signal is -0.211 E-score.
As for GTATCGAC, the binding signal was 0.405 E-score.
Consider TCTAAGAA, for which the binding signal came out at 0.072 E-score.
For CGCACGTC, the binding signal was -0.143 E-score.
As for CATTAGGA, the binding signal worked out at 0.144 E-score.
With AACGGTGC, the binding signal is -0.077 E-score.
For the sequence CTCTATGC, the binding signal was -0.0127 E-score.
With ATACACCC the figure was 0.391 E-score; with TCCGGTAA, -0.0489 E-score; with AGTTGGAG, 0.0105 E-score.
As to GGAGCCAA, the binding signal is -0.148 E-score.
Turning to AGTCCAAA, the binding signal was -0.244 E-score.
Turning to CCCAGCCC, the binding signal was -0.0899 E-score.
GAGCGGAC: the binding signal was -0.36 E-score.
With GCCTTAAC the figure was -0.311 E-score; with GCATATGC, 0.129 E-score.
With GGGCGCGA the figure was -0.0556 E-score.
With CGCGTACC the figure was -0.152 E-score.
Consider ACGAGTAT, for which the binding signal stood at 0.248 E-score.
On to TCCGCAGA, for which the binding signal was -0.00558 E-score.
Turning to AGGGCTTA, the binding signal was -0.088 E-score.
For ACTGCAGC, the binding signal was -0.12 E-score.
Regarding CGGTTACA, the binding signal stood at 0.063 E-score.
As for ACGTACTC, the binding signal was -0.168 E-score.
Consider CTTATGAA, for which the binding signal is -0.218 E-score.
In the case of CTTCAGGA, the binding signal is -0.188 E-score.
On to ATTCATCC, for which the binding signal amounted to 0.0795 E-score.
Consider AACGCCAA, for which the binding signal was -0.0829 E-score.
Regarding ATTGAAAA, the binding signal is -0.218 E-score.
Regarding AACTGTAG, the binding signal is -0.0486 E-score.
On to AACACGTA, for which the binding signal stood at 0.0976 E-score.
With CACCAACG the figure was -0.0837 E-score; with CTAGGCGA, 0.0285 E-score.
Turning to CTAGCTCA, the binding signal is -0.14 E-score.
On to GAGGACCA, for which the binding signal was -0.285 E-score.
For CCATGGTA, the binding signal amounted to 0.128 E-score.
In the case of CGGATTGC, the binding signal amounted to 0.23 E-score.
With ATCGAAAA the figure was 0.122 E-score.
TGCGCTAA: the binding signal was -0.106 E-score.
As for CCGGATTC, the binding signal worked out at 0.249 E-score.
For GCAGTAGA, the binding signal was 0.0842 E-score.
